According to the supplement of paper PMC6089552:
Among all 3,200 compounds or so, about 300 (9.4%) showed activity. The entries are a selection whose mix differs from that of the whole data set.

Tested on: A673/TR/shEF
Test: cell viability (LOESS-normalised, relative to median of negative controls) (log2 ratio); higher = more viable cells (less compound effect), active = hit call of the paper (over 3 MAD below the median)
Conditions: treatment time: 72 h
Outline: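 For three days, A673/TR/shEF Ewing sarcoma cells in 384-well plates (1,500 per well) were treated with library compounds at two or more concentrations or with DMSO controls, after doxycycline had been added or withheld 24 h beforehand to induce EWS-FLI1 shRNA knockdown. Viability was read by CellTiter-Glo luminescence on an Envision reader. The data were LOESS-corrected per plate, divided by the median of negative controls and log2-transformed.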

[1] = 0.103 µM, library screen: screen3, EWS-FLI1 expression: high (no doxycycline)
[2] = 0.103 µM, library screen: screen3, EWS-FLI1 expression: low (doxycycline-induced shRNA knockdown)
[3] = 0.308 µM, library screen: screen3, EWS-FLI1 expression: high (no doxycycline)
[4] = 0.308 µM, library screen: screen3, EWS-FLI1 expression: low (doxycycline-induced shRNA knockdown)
[5] = 0.926 µM, library screen: screen3, EWS-FLI1 expression: high (no doxycycline)
[6] = 0.926 µM, library screen: screen3, EWS-FLI1 expression: low (doxycycline-induced shRNA knockdown)
[7] = 2.8 µM, library screen: screen3, EWS-FLI1 expression: high (no doxycycline)
[8] = 2.8 µM, library screen: screen3, EWS-FLI1 expression: low (doxycycline-induced shRNA knockdown)
[9] = 8.3 µM, library screen: screen3, EWS-FLI1 expression: high (no doxycycline)
[10] = 8.3 µM, library screen: screen3, EWS-FLI1 expression: low (doxycycline-induced shRNA knockdown)
[11] = 25 µM, library screen: screen3, EWS-FLI1 expression: high (no doxycycline)
[12] = 25 µM, library screen: screen3, EWS-FLI1 expression: low (doxycycline-induced shRNA knockdown)
[13] = 0.25 µM, library screen: screen1, EWS-FLI1 expression: high (no doxycycline)
[14] = 0.25 µM, library screen: screen1, EWS-FLI1 expression: low (doxycycline-induced shRNA knockdown)
[15] = 0.25 µM, library screen: screen2, EWS-FLI1 expression: high (no doxycycline)
[16] = 0.25 µM, library screen: screen2, EWS-FLI1 expression: low (doxycycline-induced shRNA knockdown)
[17] = 2.5 µM, library screen: screen1, EWS-FLI1 expression: high (no doxycycline)
[18] = 2.5 µM, library screen: screen1, EWS-FLI1 expression: low (doxycycline-induced shRNA knockdown)
[19] = 2.5 µM, library screen: screen2, EWS-FLI1 expression: high (no doxycycline)
[20] = 2.5 µM, library screen: screen2, EWS-FLI1 expression: low (doxycycline-induced shRNA knockdown)
[21] = 25 µM, library screen: screen2, EWS-FLI1 expression: high (no doxycycline)
[22] = 25 µM, library screen: screen2, EWS-FLI1 expression: low (doxycycline-induced shRNA knockdown)

Measured: cell viability (log2)

C[C@H](NC(=O)Cc1cc(F)cc(F)c1)C(=O)N[C@@H]1C(=O)N(C)c2ccccc2-c2ccccc21
inactive: [1] -0.0495 | [2] -0.0175 | [3] -0.0169 | [4] 0.0261 | [5] -0.0343 | [6] -0.000446 | [7] -0.167 | [8] 0.0265 | [9] -0.145 | [10] -0.0275 | [11] -0.132 | [12] -0.0825

CN=C(NC#N)NCCSCc1nc[nH]c1C
inactive: [1] 0.0652 | [2] 0.116 | [13] 0.102 | [14] 0.00599 | [15] 0.174 | [16] 0.0763 | [3] 0.101 | [4] 0.0801 | [5] 0.128 | [6] 0.0772 | [17] 0.146 | [18] 0.0727 | [19] 0.0641 | [20] 0.048 | [7] 0.18 | [8] 0.0822 | [9] 0.114 | [10] 0.075 | [11] 0.114 | [12] 0.136

[Cl-].[Li+]
inactive: [15] 0.182 | [16] 0.0501 | [19] 0.154 | [20] 0.103

CCN(CC)CCNC(=O)c1ccc(NC(C)=O)cc1
inactive: [15] 0.0543 | [16] 0.0652 | [19] 0.101 | [20] 0.0714

CCCCCCN(CCCCCC)C(=O)Cc1c(-c2ccc(F)cc2)[nH]c2ccccc12
inactive: [15] 0.209 | [16] -0.0384 | [19] 0.0375 | [20] 0.0854

N[C@@H](Cc1cnc[nH]1)C(=O)O
inactive: [15] 0.191 | [16] -0.014 | [19] 0.0336 | [20] 0.0663

CC(=O)NNC(=O)N1Cc2ccccc2Oc2ccc(Cl)cc21
inactive: [15] 0.0851 | [16] 0.0315 | [19] 0.115 | [20] 0.0739

CNC[C@H](O)c1cccc(O)c1
inactive: [13] 0.117 | [14] 0.145 | [15] 0.178 | [16] 0.0908 | [17] 0.168 | [18] 0.172 | [19] 0.16 | [20] 0.0449

N=C(N)SCCc1cnc[nH]1
inactive: [15] 0.0723 | [16] 0.107 | [19] 0.124 | [20] 0.153

C[C@]12CC[C@@H](O)C[C@H]1CCc1ccccc12
inactive: [13] 0.111 | [14] 0.098 | [17] 0.147 | [18] 0.145

O=C(O[C@@H]1Cc2c(O)cc(O)cc2O[C@@H]1c1cc(O)c(O)c(O)c1)c1cc(O)c(O)c(O)c1
inactive: [13] -0.0662 | [14] 0.0913 | [17] 0.0131 | [18] 0.0765

CC[C@H](CC[C@@H](C)[C@H]1CC[C@H]2[C@@H]3CC=C4C[C@@H](OC(C)=O)CC[C@]4(C)[C@H]3CC[C@]12C)C(C)C
inactive: [13] 0.121 | [14] 0.139 | [17] 0.109 | [18] 0.182

CC1(C)OC(=O)CC(O)[C@@]2(C)C1CC(=O)[C@]1(C)C2CCC2(C)C(c3ccoc3)OC(=O)[C@H]3O[C@]321 (stereo partly drawn)
inactive: [13] 0.0277 | [14] 0.0481 | [17] 0.0671 | [18] 0.0691

Nc1ncnc2c1ncn2C1OC(C(=O)NC2CC2)C(O)C1O (stereo not drawn)
inactive: [15] 0.208 | [16] 0.0695 | [19] 0.136 | [20] 0.0888

CNc1cc(NS(=O)(=O)c2ccc(N)cc2)nc(NC)n1
inactive: [15] 0.178 | [16] 0.0243 | [19] 0.142 | [20] 0.115

CO[C@H]1C[C@@H]2CC[C@@H](C)[C@@](O)(O2)C(=O)C(=O)N2CCCC[C@H]2C(=O)O[C@H]([C@H](C)C[C@@H]2CC[C@@H](O)[C@H](OC)C2)CC(=O)[C@H](C)/C=C(\C)[C@@H](O)[C@@H](OC)C(=O)[C@H](C)C[C@H](C)/C=C/C=C/C=C/1C
active: [1] -0.737 | [2] -0.644 | [3] -0.758 | [4] -0.612 | [5] -0.692 | [6] -0.65 | [7] -0.692 | [8] -0.756 | [9] -0.726 | [10] -0.651 | [11] -0.719 | [12] -0.63

COC(=O)C[C@H]1C(C)(C)[C@@H](OC(C)=O)[C@@H]2CC3=C4CC(=O)O[C@@H](c5ccoc5)[C@]4(C)CC[C@@H]3[C@@]1(C)C2=O
inactive: [13] 0.0358 | [14] 0.0144 | [17] 0.0778 | [18] 0.108

CC1=C(C)C(=O)C(CCCCC#CCCCC#CCO)=C(C)C1=O
inactive: [15] 0.148 | [16] 0.178 | [19] 0.112 | [20] 0.155

CC(N)(Cc1ccc(O)cc1)C(=O)O (stereo not drawn)
inactive: [15] -0.00334 | [16] 0.104 | [19] 0.116 | [20] 0.0957

C#C[C@]1(O)CC[C@H]2[C@@H]3CCc4cc(OC)ccc4[C@H]3CC[C@@]21C
inactive: [1] 0.0245 | [2] 0.0772 | [3] 0.0555 | [4] 0.0124 | [5] 0.0491 | [6] 0.0579 | [7] 0.115 | [8] 0.0315 | [9] 0.13 | [10] -0.0351 | [11] 0.0698 | [12] 0.0968

CC(C)NCC(O)c1ccc(NS(C)(=O)=O)cc1 (stereo not drawn)
inactive: [1] 0.0973 | [2] 0.11 | [15] 0.208 | [16] 0.0726 | [3] 0.0771 | [4] 0.0613 | [5] 0.124 | [6] 0.123 | [19] 0.245 | [20] -0.00505 | [7] 0.0983 | [8] 0.0513 | [9] 0.0678 | [10] 0.0705 | [11] 0.123 | [12] 0.119

COc1ccc2cccc(CCNC(C)=O)c2c1
inactive: [1] 0.138 | [2] 0.00955 | [3] 0.12 | [4] 0.117 | [5] 0.0565 | [6] 0.0398 | [7] 0.137 | [8] 0.034 | [9] 0.108 | [10] 0.0253 | [11] 0.155 | [12] 0.121

CN(C)CCCCSC(=N)N
inactive: [15] 0.142 | [16] 0.0436 | [19] 0.0893 | [20] 0.0473

CC1=CC(=O)CC(C)(C)[C@@]1(O)/C=C/C(C)=C\C(=O)O
inactive: [13] 0.103 | [14] 0.084 | [17] 0.143 | [18] 0.165

CCN(CC)CCCC(C)Nc1c2ccc(Cl)cc2nc2ccc(OC)cc12 (stereo not drawn)
active: [21] -4.23 | [22] -2.71

O=C(O)[C@@H]1C[C@@H](C(=O)O)N1
inactive: [15] 0.176 | [16] 0.14 | [19] 0.0697 | [20] 0.0934

CC1(C)C2CC(=O)O[C@@]3(C)C4=CC(=O)O[C@@H](c5ccoc5)[C@]4(C)CCC3[C@@]2(C)C=C[C@H]1O (stereo partly drawn)
inactive: [13] 0.0723 | [14] 0.119 | [17] 0.0233 | [18] 0.0548

O=C(O)P(=O)(O)O
inactive: 0.025 µM, library screen: screen2, EWS-FLI1 expression: high (no doxycycline) 0.177 | 0.025 µM, library screen: screen2, EWS-FLI1 expression: low (doxycycline-induced shRNA knockdown) 0.0342 | [13] 0.113 | [14] 0.056 | [15] 0.16 | [16] 0.0393 | [17] 0.153 | [18] 0.182 | [19] 0.0316 | [20] 0.0945 | [21] 0.139 | [22] 0.0475

COc1ccccc1NC(=O)C1=C(C)NC(=O)NC1c1cccc(Cl)c1 (stereo not drawn)
inactive: [13] 0.0986 | [14] 0.0367 | [17] 0.0178 | [18] 0.0125

Cn1c(=O)c2[nH]c(-c3ccc(S(=O)(=O)O)cc3)nc2n(C)c1=O
inactive: [15] 0.235 | [16] 0.0873 | [19] 0.0666 | [20] 0.0936

CC[C@H]1OC(=O)[C@H](C)[C@@H](O[C@H]2C[C@@](C)(OC)[C@@H](O)[C@H](C)O2)[C@H](C)[C@@H](O[C@@H]2O[C@H](C)C[C@H](N(C)C)[C@H]2O)[C@](C)(O)C[C@@H](C)/C(=N/OCOCCOC)[C@H](C)[C@@H](O)[C@]1(C)O
inactive: [13] 0.13 | [14] 0.107 | [17] 0.122 | [18] 0.103

CN=C(N)NCCC[C@H](N)C(=O)O
inactive: [15] 0.135 | [16] 0.0635 | [19] 0.148 | [20] 0.0854

NS(O)(O)Cc1noc2ccccc12
inactive: [15] 0.153 | [16] 0.0786 | [19] 0.183 | [20] 0.124

CC[C@]12CCCN3CCc4c(n(c5ccccc45)C(=O)C1)[C@@H]32
inactive: [13] 0.0175 | [14] 0.0321 | [17] 0.0724 | [18] 0.0347

CC(N)(C(=O)O)c1ccc(C(=O)O)cc1 (stereo not drawn)
inactive: [15] 0.0845 | [16] 0.186 | [19] 0.128 | [20] 0.0744

CC#CCOC(=O)c1c(C)nc2sc3c(c2c1N)CCC(O)C3 (stereo not drawn)
inactive: [15] 0.106 | [16] 0.0178 | [19] 0.229 | [20] 0.0164

NCC(O)c1ccc(O)c(O)c1 (stereo not drawn)
active: [15] -0.177
inactive: [16] 0.0558 | [19] 0.0351 | [20] -0.00208

CCn1cc(C(=O)O)c(=O)c2cc(F)c(N3CCNC(C)C3)c(F)c21 (stereo not drawn)
inactive: [1] 0.0316 | [2] 0.0571 | [13] 0.0538 | [14] 0.0764 | [15] 0.0719 | [16] 0.118 | [3] 0.0629 | [4] 0.00567 | [5] -0.0224 | [6] 0.0164 | [17] 0.104 | [18] 0.0913 | [19] 0.103 | [20] 0.152 | [7] 0.0299 | [8] 0.0284 | [9] 0.0658 | [10] 0.0646 | [11] 0.0572 | [12] 0.0961
